± gives the standard deviation. This is a selection; strong and weak results do not stand in their true shares.
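Also: 1 nM active piRISC with 0.1 nM target library at 33 °C single turnover.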

The test system of one test is MIWI (PIWIL1) piRISC loaded with L1MC piRNA (30 nt). In words: pre-steady-state target cleavage rate (min^-1); MIWI and MILI are mouse PIWI proteins and EfPiwi is from a freshwater sponge; tags in brackets are library labels; higher = faster piRNA-guided slicing of the target. As to conditions: guide: L1MC piRNA 5'p-UAACUAAAUACUAUGCAAGCUGUAGGUCCU; auxiliary factor: 500 nM mouse GTSF1. An outline of the steps:
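Three pooled Cleave-'n-Seq trials supplied the data, with k3 capped at 0.0001 min^-1. In each, […] transcribed, DNA-blocked target RNA library and 1 nM active affinity-purified piRISC with one synthetic guide reacted in HEPES–potassium acetate buffer at 33 °C for 0–8 or 0–960 min, with or without 500 nM GTSF1 partner protein. Uncleaved targets were sequenced and normalised to depth and to weakly complementary targets. A burst-and-steady-state fit provided the pre-steady-state cleavage rate.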
Turning to UCGACCUACAGCUUGCAUACAUUUUAGUUA, the “pre-steady-state target cleavage rate” value was found to be 0.0121 ± 0.0056.
For the sequence UCCUCCUACAGCUUGCAUAGUAUAAAGAAA, the “pre-steady-state target cleavage rate” value stood at 0.249 ± 0.049.
On to UCCUGGAUGUGCUUGCAUACUAUUUAGAAA, for which the “pre-steady-state target cleavage rate” value was determined as 0.0056 ± 0.0041.
Turning to UCCACCUACAGCUUGACAUAGUAUUUAGUUA, the “pre-steady-state target cleavage rate” value was found to be 0.539 ± 0.048.
Take UCCACCUACAGCUUGCAUAGUUAUUAGAAA: the “pre-steady-state target cleavage rate” value is 0.0769 ± 0.022.
As for UCCUGGAUGAGCUUGCAAUCUAUUUAGUUA, the “pre-steady-state target cleavage rate” value came out at 0.00395 ± 0.0025.
The same measure, in the same setting: next, UCCUGGAUGUCGAACGUUUGUAUAUAGUUA: less than 0.0001; UCCUGGAUGUGCUUGCAUAGUUUAUAGUUA: 0.00493 ± 0.0041.
Take UGGACCUACUCCUUGCAUAGUAUUUUCAAA: the “pre-steady-state target cleavage rate” value worked out at 0.0856 ± 0.017.
On the same count and under the same terms, the figure for UCGACCUACAGCUUGCAUCAGUAUUUAGUUA is 0.11 ± 0.041.
Consider UCCUGGAUGUCCUUGCAUAGAAUUUAGUUA, for which the “pre-steady-state target cleavage rate” value amounted to 0.00903 ± 0.0042.
Turning to UCGACCUACAGCUUGCAUAGUUUUAGUUA, the “pre-steady-state target cleavage rate” value came out at 0.0671 ± 0.024.
On to UCGACCUACAGCUUGCAUAGCUAUUUAGUUA, for which the “pre-steady-state target cleavage rate” value stood at 0.0589 ± 0.021.
The same measure, in the same setting: the figure for UCCUGGAUCAGCUUGCAUAGUAUAAAGUAA is 0.239 ± 0.039; for UCCUGGAACAGCUUGGUAAGUAUUUAGUUA it is 0.00797 ± 0.0031.
Consider AGGACCUACAGCUUGCAUAGUAUUAUCAAA, for which the “pre-steady-state target cleavage rate” value is 0.391 ± 0.053.
Turning to UCCUGCUACAGCUUGCAUAGUUUUAGUUA, the “pre-steady-state target cleavage rate” value worked out at 0.00729 ± 0.0045.
On the same count and under the same terms, the figure for AGGACCUACAGCUUGGUUAGUAUUUUCAAA is 0.0563 ± 0.019.
Turning to UCCUGGAUGUCGAAGCAUAGUAUCUAGUUA, the “pre-steady-state target cleavage rate” value was found to be 0.00506 ± 0.0033.
Regarding UCCUGGAUCAGCUUGCAUUGUAUUUUCAAA, the “pre-steady-state target cleavage rate” value came out at 0.0122 ± 0.0052.
In the case of “UCCUGGAUGUCGAAGCAUAGUAUUUAGUUC [g2:g16:cont:t1C]”, the “pre-steady-state target cleavage rate” value amounted to 0.00369 ± 0.0034.
As to UCCUGGUACAGCUUCGUUAGUAUUUAGUAA, the “pre-steady-state target cleavage rate” value amounted to 0.0157 ± 0.0067.
In the case of UGGACCUAGUCCUUGCAUAGUAUUUACAAA, the “pre-steady-state target cleavage rate” value was determined as 0.0221 ± 0.0084.
On to UCCACCUACUCGUUGCAUAGUAUUUACAAA, for which the “pre-steady-state target cleavage rate” value came to 0.135 ± 0.023.
Take UGGACCUUGUGCUUGCAUAGUAUUUUCAAA: the “pre-steady-state target cleavage rate” value was determined as 0.0114 ± 0.0026.
On the same count and under the same terms, the figure for AGGACCUACAGCUUGCAUAGAUUUUACAAA is 0.304 ± 0.1; for UCCUGGAUCAGCUUGCAUACAAUUUAGUUA it is 0.00714 ± 0.0037.
The same measure, in the same setting: the figure for UCGACCUACAGCUUGCAUAGUUUUUUCAAA is 0.299 ± 0.059; for UCCUGCUUCAGCUUGCAUAGUAUUUUCAAA it is 0.197 ± 0.035.
Still for that read-out and setting: next, UCCUGGUACAGCUUGCAUAGUUAAUAGAAA: 0.023 ± 0.0089; “UCCACCUACAGCUUGCAUAGUUAAAUCAAA [g10:g27:cont:t1A]”: 0.0397 ± 0.015; AGGACCUACACGAUGCAUAGUAUUUUCAAA: 0.244 ± 0.042.
As for UCGACCUACAGCUUGCAAUCUAUUUAGUAA, the “pre-steady-state target cleavage rate” value came to 0.192 ± 0.031.
As for UCCUGCUACAGCUAGCAUAGUAUUUUCAAA, the “pre-steady-state target cleavage rate” value was found to be 0.0744 ± 0.023.
UCCUGCUACUCGUUGCAUAGUAUUUUCAAA: the “pre-steady-state target cleavage rate” value was found to be 0.0195 ± 0.0071.
UCCUGGAACAGCUUGCAAUCUAUUUAGUAA: the “pre-steady-state target cleavage rate” value is 0.0175 ± 0.0074.
In the case of UCCUGGAUCAGCAACCAUAGUAUUUAGUUA, the “pre-steady-state target cleavage rate” value was 0.00823 ± 0.0048.

Still in this test, the particulars now being: guide: L1MC piRNA 5'p-UAACUAAAUACUAUGCAAGCUGUAGGUCCU; auxiliary factor: none (no GTSF1).
Regarding UCCUGGAUGUCGAACGAUACAUUUUAGUUA, the “pre-steady-state target cleavage rate” value was less than 0.0001.
The same measure, in the same setting: the figure for UCCUGGAUGUCGAACGAAGUAUUUAGUUA is less than 0.0001; for UCCUCCAACAGCUUGCAUAGUAUUUAGUUA it is 0.0735 ± 0.013.

The values are drawn from the supplement of paper PMC10338343.
